By IC50 is meant the dose at which the fit gives 50% viability; a fit beyond the top or the lowest dose is shown as a bound at that dose. For AUC the same curve is integrated over the 256-fold range of doses and scaled to a fraction; the more sensitive the line, the further below 1. For part of these data: An inferred top dose was derived from the fitted curves, not read from the paper.
What was measured:
Assay in all cases: Viability of human cancer cell lines after 72 h of drug (GDSC screen)
[1] = compound: CO[C@@H]1[C@H](N(C)C(=O)c2ccccc2)C[C@H]2O[C@]1(C)n1c3ccccc3c3c4c(c5c6ccccc6n2c5c31)C(=O)NC4 [Midostaurin]; settings: top dose 0.512 µM; top dose inferred
Method: (§1)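 Human cancer cell lines in 384-well plates, medium with 10% serum, drug for 72 h over a 256-fold dose range (nine 2-fold or five 4-fold steps up to the top dose). Adherent lines were fixed and stained with the nucleic acid dye Syto60, suspension lines read with resazurin; signal relative to control wells, capped at 0 and 100%. One two-parameter sigmoid per drug and line, fitted in a mixed model over all curves with the slope shared within a line.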

[2] = compound: COc1cc(Nc2c(C#N)cnc3cc(OCCCN4CCN(C)CC4)c(OC)cc23)c(Cl)cc1Cl [Bosutinib]; settings: top dose 2 µM
Method: as §1

[3] = compound: Cc1ccc(C(=O)Nc2cccc(C(F)(F)F)c2)cc1Nc1nc(-c2cccnc2)nc2c1cnn2C [NVP-BHG712]; settings: top dose 10.24 µM; top dose inferred
Method: as §1

[4] = compound: CO[C@@]12[C@H](COC(N)=O)C3=C(C(=O)C(C)=C(N)C3=O)N1C[C@@H]1N[C@@H]12 [Mitomycin C]; settings: top dose 16 µM
Method: as §1

[5] = compound: O=C(O)CNC(=O)c1c(O)c2ccccc2n(Cc2ccccc2)c1=O [IOX2]; settings: top dose 0.1 µM; top dose inferred
Method: as §1

[6] = compound: CC[C@H](CO)Nc1nc(NCc2ccccc2)c2ncn(C(C)C)c2n1 [Roscovitine]; settings: top dose 16 µM; top dose inferred
Method: as §1

RL (B-cell lymphoma, suspension)
AUC [1]: 0.989 | IC50 [1]: > 512 nM | AUC [2]: 0.99 | IC50 [2]: > 2000 nM | AUC [3]: 0.501 | IC50 [3]: 642 nM | AUC [4]: 0.786 | IC50 [4]: 6290 nM | AUC [5]: 0.989 | IC50 [5]: > 100 nM | AUC [6]: 0.99 | IC50 [6]: > 16000 nM

COR-L95 (small cell lung carcinoma, adherent)
AUC [1]: 0.986 | IC50 [1]: > 512 nM | AUC [2]: 0.987 | IC50 [2]: > 2000 nM | AUC [3]: 0.966 | IC50 [3]: > 10200 nM | AUC [4]: 0.59 | IC50 [4]: 1840 nM | AUC [5]: 0.985 | IC50 [5]: > 100 nM | AUC [6]: 0.977 | IC50 [6]: > 16000 nM

KM-H2 (Hodgkin lymphoma, suspension)
AUC [1]: 0.962 | IC50 [1]: > 512 nM | AUC [2]: 0.991 | IC50 [2]: > 2000 nM | AUC [3]: 0.941 | IC50 [3]: > 10200 nM | AUC [4]: 0.189 | IC50 [4]: 144 nM | AUC [5]: 0.993 | IC50 [5]: > 100 nM | AUC [6]: 0.991 | IC50 [6]: > 16000 nM

CGTH-W-1 (thyroid, adherent)
AUC [1]: 0.546 | IC50 [1]: 42.6 nM | AUC [2]: 0.887 | IC50 [2]: > 2000 nM | AUC [3]: 0.914 | IC50 [3]: > 10200 nM | AUC [4]: 0.14 | IC50 [4]: 75.2 nM | AUC [5]: 0.911 | IC50 [5]: > 100 nM | AUC [6]: 0.928 | IC50 [6]: > 16000 nM

BV-173 (chronic myeloid leukaemia, suspension)
AUC [1]: 0.898 | IC50 [1]: 509 nM | AUC [2]: 0.566 | IC50 [2]: 184 nM | AUC [3]: 0.122 | IC50 [3]: 49.7 nM | AUC [4]: 0.617 | IC50 [4]: 2010 nM | AUC [5]: 0.987 | IC50 [5]: > 100 nM | AUC [6]: 0.967 | IC50 [6]: > 16000 nM

LU-165 (small cell lung carcinoma, suspension)
AUC [1]: 0.97 | IC50 [1]: > 512 nM | AUC [2]: 0.988 | IC50 [2]: > 2000 nM | AUC [3]: 0.958 | IC50 [3]: > 10200 nM | AUC [4]: 0.416 | IC50 [4]: 570 nM | AUC [5]: 0.986 | IC50 [5]: > 100 nM | AUC [6]: 0.981 | IC50 [6]: > 16000 nM

LU-134-A (small cell lung carcinoma, suspension)
AUC [1]: 0.925 | IC50 [1]: > 512 nM | AUC [2]: 0.983 | IC50 [2]: > 2000 nM | AUC [3]: 0.958 | IC50 [3]: > 10200 nM | AUC [4]: 0.173 | IC50 [4]: 93.7 nM | AUC [5]: 0.982 | IC50 [5]: > 100 nM | AUC [6]: 0.959 | IC50 [6]: > 16000 nM

RPMI-8866 (chronic myeloid leukaemia, suspension)
AUC [1]: 0.988 | IC50 [1]: > 512 nM | AUC [2]: 0.627 | IC50 [2]: 273 nM | AUC [3]: 0.792 | IC50 [3]: 4270 nM | AUC [4]: 0.558 | IC50 [4]: 1420 nM | AUC [5]: 0.987 | IC50 [5]: > 100 nM | AUC [6]: 0.986 | IC50 [6]: > 16000 nM

EW-16 (Ewing sarcoma, adherent)
AUC [1]: 0.824 | IC50 [1]: 322 nM | AUC [2]: 0.79 | IC50 [2]: 932 nM | AUC [3]: 0.964 | IC50 [3]: > 10200 nM | AUC [4]: 0.065 | IC50 [4]: < 62.5 nM | AUC [5]: 0.98 | IC50 [5]: > 100 nM | AUC [6]: 0.942 | IC50 [6]: > 16000 nM

OPM-2 (myeloma, suspension)
AUC [1]: 0.948 | IC50 [1]: > 512 nM | AUC [2]: 0.994 | IC50 [2]: > 2000 nM | AUC [3]: 0.809 | IC50 [3]: 4170 nM | AUC [4]: 0.779 | IC50 [4]: 5340 nM | AUC [5]: 0.993 | IC50 [5]: > 100 nM | AUC [6]: 0.962 | IC50 [6]: > 16000 nM

IST-MEL1 (melanoma, adherent)
AUC [1]: 0.895 | IC50 [1]: > 512 nM | AUC [2]: 0.915 | IC50 [2]: > 2000 nM | AUC [3]: 0.92 | IC50 [3]: > 10200 nM | AUC [4]: 0.101 | IC50 [4]: < 62.5 nM | AUC [5]: 0.95 | IC50 [5]: > 100 nM | AUC [6]: 0.937 | IC50 [6]: > 16000 nM

NH-12 (neuroblastoma, adherent)
AUC [1]: 0.871 | IC50 [1]: > 512 nM | AUC [2]: 0.957 | IC50 [2]: > 2000 nM | AUC [3]: 0.795 | IC50 [3]: 5410 nM | AUC [4]: 0.239 | IC50 [4]: 157 nM | AUC [5]: 0.982 | IC50 [5]: > 100 nM | AUC [6]: 0.985 | IC50 [6]: > 16000 nM

MC-CAR (haematopoietic neoplasm, suspension)
AUC [1]: 0.963 | IC50 [1]: > 512 nM | AUC [2]: 0.883 | IC50 [2]: 1740 nM | AUC [3]: 0.675 | IC50 [3]: 1850 nM | AUC [4]: 0.244 | IC50 [4]: 202 nM | AUC [5]: 0.988 | IC50 [5]: > 100 nM | AUC [6]: 0.955 | IC50 [6]: > 16000 nM

MFM-223 (breast, adherent)
AUC [1]: 0.989 | IC50 [1]: > 512 nM | AUC [2]: 0.955 | IC50 [2]: > 2000 nM | AUC [3]: 0.945 | IC50 [3]: > 10200 nM | AUC [4]: 0.699 | IC50 [4]: 3590 nM | AUC [5]: 0.988 | IC50 [5]: > 100 nM | AUC [6]: 0.987 | IC50 [6]: > 16000 nM

D-542MG (glioma, adherent)
AUC [1]: 0.975 | IC50 [1]: > 512 nM | AUC [2]: 0.984 | IC50 [2]: > 2000 nM | AUC [3]: 0.931 | IC50 [3]: > 10200 nM | AUC [4]: 0.466 | IC50 [4]: 790 nM | AUC [5]: 0.98 | IC50 [5]: > 100 nM | AUC [6]: 0.884 | IC50 [6]: > 16000 nM

SU-DHL-16 (B-cell lymphoma, suspension)
AUC [1]: 0.822 | IC50 [1]: 199 nM | AUC [2]: 0.804 | IC50 [2]: 696 nM | AUC [3]: 0.265 | IC50 [3]: 172 nM | AUC [4]: 0.35 | IC50 [4]: 435 nM | AUC [5]: 0.996 | IC50 [5]: > 100 nM | AUC [6]: 0.975 | IC50 [6]: > 16000 nM

DND-41 (T-cell leukaemia, suspension)
AUC [1]: 0.93 | IC50 [1]: > 512 nM | AUC [2]: 0.946 | IC50 [2]: > 2000 nM | AUC [3]: 0.646 | IC50 [3]: 1540 nM | AUC [4]: 0.194 | IC50 [4]: 143 nM | AUC [5]: 0.989 | IC50 [5]: > 100 nM | AUC [6]: 0.897 | IC50 [6]: 15700 nM

TE-5 (oesophagus, adherent)
AUC [1]: 0.972 | IC50 [1]: > 512 nM | AUC [2]: 0.976 | IC50 [2]: > 2000 nM | AUC [3]: 0.975 | IC50 [3]: > 10200 nM | AUC [4]: 0.246 | IC50 [4]: 164 nM | AUC [5]: 0.973 | IC50 [5]: > 100 nM | AUC [6]: 0.907 | IC50 [6]: > 16000 nM

MS-1 (small cell lung carcinoma, suspension)
AUC [1]: 0.969 | IC50 [1]: > 512 nM | AUC [2]: 0.991 | IC50 [2]: > 2000 nM | AUC [3]: 0.942 | IC50 [3]: > 10200 nM | AUC [4]: 0.46 | IC50 [4]: 786 nM | AUC [5]: 0.991 | IC50 [5]: > 100 nM | AUC [6]: 0.936 | IC50 [6]: > 16000 nM

C2BBe1 (large intestine, adherent)
AUC [1]: 0.975 | IC50 [1]: > 512 nM | AUC [2]: 0.88 | IC50 [2]: > 2000 nM | AUC [3]: 0.885 | IC50 [3]: > 10200 nM | AUC [4]: 0.635 | IC50 [4]: 2480 nM | AUC [5]: 0.975 | IC50 [5]: > 100 nM | AUC [6]: 0.933 | IC50 [6]: > 16000 nM

IST-SL1 (small cell lung carcinoma, semi-adherent)
AUC [1]: 0.939 | IC50 [1]: > 512 nM | AUC [2]: 0.978 | IC50 [2]: > 2000 nM | AUC [3]: 0.807 | IC50 [3]: 5430 nM | AUC [4]: 0.518 | IC50 [4]: 1120 nM | AUC [5]: 0.983 | IC50 [5]: > 100 nM | AUC [6]: 0.92 | IC50 [6]: > 16000 nM

Source: the supplement of paper PMC4967469
